# From PubChem BioAssay (NCATS)
# The list shows a part of the results. Shown are side measurements of this screen, not its main read-out; they come without a call. Compounds called inactive in the main read-out are mostly missing here. Words in brackets tell the shape of the fitted curve; partial curves, single points and poor fits give uncertain potencies.
# Molecular target: Catechol O-methyltransferase (Homo sapiens) (UniProt P21964)
# Experiment: Confirmatory Screen for Target Class Profiling of Small Molecule Inhibitors of Methyltransferases (AID 1745852);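 further: inhibitor potency for blocking SAH production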
# Conditions: MTase-Glo luminescence, SAH detection, recombinant enzyme; measured here: COMT inhibition potency
# Tags describe the fitted curve by direction and shape.
# UniProt P21964, sequence (P21964 whole entry, looked up): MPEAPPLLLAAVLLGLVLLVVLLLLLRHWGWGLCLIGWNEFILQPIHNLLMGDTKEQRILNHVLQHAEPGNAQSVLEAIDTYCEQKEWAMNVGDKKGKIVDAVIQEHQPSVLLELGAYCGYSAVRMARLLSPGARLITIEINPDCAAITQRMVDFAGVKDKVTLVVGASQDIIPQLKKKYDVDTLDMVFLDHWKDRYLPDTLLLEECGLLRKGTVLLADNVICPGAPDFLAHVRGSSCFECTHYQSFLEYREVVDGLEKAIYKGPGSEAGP
row,SMILES,IC50
1,CCN(CC)Cc1cnc2c(C(=O)N3CCCN4CCC[C@H]4C3)cnn2c1,"24.1 µM [falling, partial curve]"
2,CC(=O)OC/C=C(\C)C(CC1C(C)=C(OC(C)=O)C(=O)C2C(C)(C)C(O)CCC12C)OC(C)=O (stereo not drawn),"8.35 µM [falling, partial curve]"
3,CC(O)(CC(=O)O)CC(=O)OCc1ccc(O[C@@H]2O[C@H](CO)[C@@H](O)[C@H](O)[C@H]2O)cc1 (stereo partly drawn),"6.63 µM [falling, partial curve]"
4,CC(C)=C1CC2C(CCC2(C)O)C(C)(O)CC1=O (stereo not drawn),"1.21 µM [falling, full curve]"
5,CC/C=C\CCO[C@@H]1O[C@H](CO)[C@@H](O)[C@H](O)[C@H]1O,"3.83 µM [falling, partial curve]"
6,CN1Cc2sccc2C(c2ccc(O)c(O)c2)C1 (stereo not drawn),"6.85 µM [rising, partial curve]"
7,C=C1C(=O)OC2C1CCC1(C)C(O)CCC(=C)C21 (stereo not drawn),"9.61 µM [falling, partial curve]"
8,COc1cc(/C=C/C(=O)O[C@H]2[C@H](OC(=O)/C=C/c3cc(OC)c(O)c(OC)c3)O[C@H](CO[C@@H]3O[C@H](CO)[C@@H](O)[C@H](O)[C@H]3O)[C@@H](O)[C@@H]2O)ccc1O,"5.69 µM [falling, partial curve]"
9,CC1(C)CC[C@]2(C(=O)O[C@@H]3O[C@H](CO)[C@@H](O)[C@H](O)[C@H]3O)CC[C@]3(C)C(=CCC4[C@@]5(C)C[C@@H](O)[C@H](O)C(CO)(CO)C5CC[C@]43C)C2[C@@H]1O (stereo partly drawn),"2.85 µM [falling, partial curve]"
10,C=C(C(=O)O)[C@H]1C[C@]2(C)C(=O)CC[C@]23O[C@H]1C[C@@H]3C,"4.29 µM [falling, full curve]"
11,C=C(C)C1Cc2cc(C(=O)OC3OC(CO)C(O)C(O)C3O)ccc2O1 (stereo not drawn),"7.48 µM [falling, partial curve]"
12,Oc1ccc(CNc2ccccc2F)c2cccnc12,"10.8 µM [falling, partial curve]"
13,COC1C=C(C)C(O)(CO)C2(C)CCCC(C)(C)C12 (stereo not drawn),"17.1 µM [falling, partial curve]"
14,C=C[C@H]1[C@H](O[C@@H]2O[C@H](CO)[C@@H](O)[C@H](OC(=O)/C=C/c3ccc(O)c(OC)c3)[C@H]2O)OC=C2C(=O)OCC[C@]21O,"8.35 µM [falling, partial curve]"
15,COc1ccc(/C=C/C(=O)O[C@@H]2[C@@H](OC(C)=O)[C@@H](OC(C)=O)[C@H](O[C@H]3[C@@H]4C=CO[C@@H](O[C@@H]5O[C@H](CO)[C@@H](O)[C@H](O)[C@H]5O)[C@@H]4[C@@]4(CO)O[C@@H]34)O[C@H]2C)cc1O,"1.43 µM [falling, full curve]"
16,C=C1CC/C=C(/CO)C(=O)C[C@@H]2[C@@H]1C[C@@]2(C)COC(C)=O,"12.1 µM [falling, partial curve]"
17,COC(=O)C1=COC(OC2OC(CO)C(O)C(O)C2O)C2C1CC(OC(=O)C(O)CC(=O)O)C2C (stereo not drawn),"5.91 µM [falling, partial curve]"
18,COc1cc(C(=O)OC[C@H]2O[C@@H](Oc3ccccc3/C=C/C(=O)O)[C@H](O)[C@@H](O)[C@@H]2O)cc(OC)c1OC,"3.32 µM [falling, full curve]"
19,C=C1C(=O)O[C@@H]2/C=C(\C)C(=O)/C=C/[C@](C)(O)C[C@@H](OC(=O)C(C)C)[C@@H]12,"4.21 µM [falling, full curve]"
20,CCOc1cc(CNc2ccc(C(=O)O)cc2)ccc1OCc1ccccc1,"21.7 µM [falling, partial curve]"
21,CC1(CO)CC(O)C2(C)CCC3(C)C(=CCC4C5(C=O)CCC(OC6OC(C(=O)O)C(O)C(O)C6OC6OC(C(=O)O)C(O)C(O)C6O)C(C)(C)C5CCC43C)C2C1 (stereo not drawn),"2.57 µM [falling, partial curve]"
22,COc1cc(C2Oc3c(OC)cc(CCCO[C@@H]4O[C@H](CO)[C@@H](O)[C@H](O)[C@H]4O)cc3C2CO)ccc1O (stereo partly drawn),"2.64 µM [falling, full curve]"
23,COc1cc(C2Oc3c(OC)cc(/C=C/C(=O)OC4CC(O)(C(=O)O)CC(O)C4O)cc3C2CO)ccc1O (stereo not drawn),"8.35 µM [falling, partial curve]"
